In PubChem BioAssay AID488969 (Vanderbilt High Throughput Screening Facility, 2010) one finds z-score data, which are given here for 69 molecules.

The structures appear in SMILES notation. In all, about 110,000 compounds were measured (“z-score”: median about -0.1, highest 2% from about 2 on). The list shows a part of the results. The source made the active and inactive calls.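 Rule for the calls: active = z-score in the third read window above 3 or below -3; inactive = the rest.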

For this experiment, the target named is Metabotropic glutamate receptor 8 (Rattus norvegicus) (UniProt P70579). As to the kind of experiment: rat mGluR8 modulators via GIRK flux, primary screen, cell-based, thallium flux, HTS (AID 488969). The following applies: HEK293 rat mGluR8, GIRK (G protein-gated inwardly rectifying potassium channel) thallium flux, FluoZin2; at 10 µM; stronger effect = higher value; submaximal glutamate (EC20) added with thallium.
Sequence of UniProt P70579 (P70579 whole entry, looked up): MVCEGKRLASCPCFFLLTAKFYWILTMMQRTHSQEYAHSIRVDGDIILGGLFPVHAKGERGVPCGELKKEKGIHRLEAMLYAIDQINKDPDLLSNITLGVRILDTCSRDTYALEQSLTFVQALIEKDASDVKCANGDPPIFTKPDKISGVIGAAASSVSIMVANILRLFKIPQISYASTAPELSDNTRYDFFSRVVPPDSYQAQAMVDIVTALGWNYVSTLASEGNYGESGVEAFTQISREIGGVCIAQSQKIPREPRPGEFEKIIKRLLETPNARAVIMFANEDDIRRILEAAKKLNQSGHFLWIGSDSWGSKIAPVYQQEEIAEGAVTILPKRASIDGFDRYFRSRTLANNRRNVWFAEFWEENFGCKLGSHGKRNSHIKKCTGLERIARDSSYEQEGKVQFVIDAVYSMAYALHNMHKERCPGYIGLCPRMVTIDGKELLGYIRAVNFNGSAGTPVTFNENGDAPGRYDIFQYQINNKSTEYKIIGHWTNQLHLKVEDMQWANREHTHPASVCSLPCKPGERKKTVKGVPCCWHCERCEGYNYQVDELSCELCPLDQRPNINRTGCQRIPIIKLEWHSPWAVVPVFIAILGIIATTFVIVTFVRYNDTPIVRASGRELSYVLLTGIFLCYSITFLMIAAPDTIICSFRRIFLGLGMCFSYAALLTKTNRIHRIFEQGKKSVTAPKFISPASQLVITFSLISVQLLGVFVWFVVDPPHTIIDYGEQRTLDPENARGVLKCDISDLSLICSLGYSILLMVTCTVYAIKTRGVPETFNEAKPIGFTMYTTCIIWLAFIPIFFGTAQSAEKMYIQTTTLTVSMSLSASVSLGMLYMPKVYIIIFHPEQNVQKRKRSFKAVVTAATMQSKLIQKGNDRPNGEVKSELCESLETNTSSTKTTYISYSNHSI
On to `O=C1Nc2ccc(S(=O)(=O)NCc3ccccn3)c3cccc1c23`, for which the z-score was -0.472.
`Nn1c(SCC(=O)N2CCN(S(=O)(=O)c3ccccc3)CC2)nnc1-c1cccs1` gave a z-score of -0.168.
The molecule `Cc1ccc(NC(=S)N2CCC(c3nc4ccccc4s3)CC2)cc1` returned a z-score of 0.0218.
In the case of `S=C(Nc1ccccc1)Nc1ccc(OCc2ccc(Cl)cc2Cl)cc1`, the z-score is -0.223.
For the molecule `CCCc1cc(C(=O)Nc2sc3c(c2C(=O)OCC)CCCC3)no1`, the z-score amounted to 1.3.
In the case of `C/C(Cl)=C\Cn1c(N2CCCCCC2)nc2c1c(=O)n(C)c(=O)n2C`, the z-score is -0.0856.
On to `N#Cc1ccccc1NC(=O)c1ccccc1OCC(=O)Nc1ccc2c(c1)oc1ccccc12`, for which the z-score was -0.362.
`O=C(Nc1ccc(N2CCOCC2)cc1)Nc1ccc2nc(-c3ccco3)c(-c3ccco3)nc2c1` registered a z-score of -0.684.
Regarding `Cn1nc(C(F)(F)F)c(C#N)c1N1CCN(c2cccc(C(F)(F)F)c2)CC1`, the z-score was -0.0641.
In turn, `CCOC(=O)CSc1nnc(NCC(=O)OC(C)C)c(=O)[nH]1` came in with a z-score of -0.488.
`Cc1ccc(C)c(C(=O)NCc2ccncc2)c1` gave a z-score of -0.383.
In turn, `CNc1c2c(nn1C)CCCC2` registered a z-score of 0.166.
With `CC1OC(C)(C)OC1C1CNc2nc(NC(=O)C(C)(C)C)[nH]c(=O)c2N1C(=O)c1cccnc1` (centres undefined), the z-score is -0.0365.
On to `NC(=O)COc1ncn(-c2ccccc2)n1`, for which the z-score is 0.311.
Molecule `c1ccc(NCc2nc(-c3ccccc3)no2)cc1` registered a z-score of -0.0827.
As for `O=C(Nc1ccc2c(c1)OCCO2)C(c1ccc(F)cc1)N1CCCCC1` (centres undefined), the z-score was -0.253.
`CCOC(=O)c1cnc(-c2cccc(OC)c2)[nH]c1=O` registered a z-score of 0.527.
With `Cc1ccc(/C=C2\SC(=S)N(C(Cc3ccccc3)C(=O)O)C2=O)cc1` (centres undefined), the z-score was -0.753.
Consider `Cn1c(=O)c2c(SCc3cccc(C(F)(F)F)c3)nc(-c3ccco3)nc2n(C)c1=O`, for which the z-score is -0.194.
For the molecule `Cc1ccc(N2C(=O)CSC2c2cccnc2)cc1F` (centres undefined), the z-score is -0.152.
The molecule `COc1cccc(-c2nc(CS(=O)(=O)CC(=O)NCCC(C)C)c(C)o2)c1` gave a z-score of 0.137.
Regarding `Cc1ccc(Cl)cc1N1CCN(C(=O)c2ccc(CN3CCOCC3)cc2)CC1`, the z-score is -1.23.
In turn, `COC(=O)c1ccc(C)c(NC(=O)CN(c2ccc3c(c2)OCO3)S(C)(=O)=O)c1` came in with a z-score of 0.175.
For the molecule `O=C(NC(Nc1nc2ccc([N+](=O)[O-])cc2s1)(C(F)(F)F)C(F)(F)F)c1ccccc1Cl`, the z-score was active: 9.65.
As to `CCc1ccc2[nH]c(O)c(N=Nc3nc(-c4ccccc4)cs3)c2c1`, the z-score was found to be 2.89.
`COc1cccc(N(C(=O)CNC(=O)c2ccco2)C(C(=O)NC2CCCC2)c2ccncc2)c1` (centres undefined) displayed a z-score of 1.01.
On to `COc1ccc(CC(=O)Nc2ccc(-c3noc(-c4ccc(Cl)cc4)n3)cc2)cc1`, for which the z-score is -0.648.
Consider `COc1ccccc1CNC(=O)C1=C(C)C(=O)OC12CCC(C)CC2` (centres undefined), for which the z-score was -0.139.
`CCC(CC)NC(=O)COC(=O)c1ccc(NS(=O)(=O)c2ccc3c(c2)OCCO3)cc1` came in with a z-score of -0.43.
As to `CCC(=O)c1c[nH]c(C(=O)NCCCn2ccnc2)c1`, the z-score is 0.09.
The value for `CC1CCCC(NC(=O)COC(=O)COc2ccc(Cl)cc2)C1C` (centres undefined) was -0.271.
In turn, `COc1cc(C(=O)Nc2nc3ccc(C)cc3s2)ccc1OCc1c(C)noc1C` registered a z-score of -0.307.
Turning to `CCOc1cccc(C(=O)Nc2cccc(C(=O)NCC(C)C)c2)c1`, the z-score was -0.422.
The molecule `c1ccc2c(c1)CCN(c1nc3cc4c(cc3s1)OCO4)C2` gave a z-score of 0.247.
Molecule `O=C1C(NS(=O)(=O)c2cccs2)=C(N2CCN(c3cccc(Cl)c3)CC2)C(=O)c2ccccc21` gave a z-score of -0.0984.
`Cc1ccc(-c2ccnc(=S)[nH]2)cc1` gave a z-score of 0.997.
`Cc1sc2ncn(CC(=O)OC(C)C(=O)NC(C)(C)C)c(=O)c2c1C` (centres undefined) had a z-score of -0.339.
Molecule `Cc1ccc(N2CC(C(=O)NCCC(C)C)CC2=O)cc1` (centres undefined) returned a z-score of -0.0128.
`Cc1ccc(S(=O)(=O)NC2CCCC(C(=O)O)C2)cc1` (centres undefined): the z-score was 0.0898.
To `O=c1cc2c(nn1Cc1ccc(Cl)cc1)-c1ccccc1CC2` belongs 0.763; to `CS(=O)(=O)N1CCN(c2ncccn2)CC1`, 0.25.
`O=C(O)C1C2C=CC3(CN(c4cccc(C(F)(F)F)c4)C(=O)C13)O2` (centres undefined) came in with a z-score of 0.0234.
`Cc1cc(C)c2c(-n3cccc3)c(C(=O)NNS(=O)(=O)c3ccc(Br)cc3)sc2n1` gave a z-score of 0.741.
`COc1ccc(CCNc2nc3ccccc3n3nnnc23)cc1OC`: the z-score is -0.352.
`CC(C)CNC(=O)c1ccccc1NC(=O)c1ccccc1N(C)S(C)(=O)=O` yielded a z-score of 0.341.
As for `Cc1sc(NC(=O)c2ccco2)c(C(c2cccnc2)N2CCC(C)CC2)c1C` (centres undefined), the z-score was -0.126.
Molecule `CCC1CC2(C)NC(=O)c3c(sc4c3CC(C)(C)OC4)N2C1=O` (centres undefined) yielded a z-score of -0.0237.
The value for `CCNC(=O)c1sc(=S)n(CC)c1N` was 0.214; that for `Cc1ccc(N2C(=O)CSC2c2cccs2)cc1` (centres undefined) was 0.358; that for `CCOC(=O)c1cc2sc(C)cc2n1CC(=O)N1CCN(C(=O)c2ccco2)CC1` was -0.185.
Molecule `COn1c2c(c3c4no[n+]([O-])c4ccc31)CCCC2` had a z-score of -0.414.
The molecule `O=[N+]([O-])c1cc2c(c(CSc3nnc(Nc4ccccc4)s3)c1)OCOC2` came in with a z-score of 0.199.
Turning to `COCCCNC(=O)CN1CCN(Cc2ccccc2Cl)C1=O`, the z-score was -0.0179.
To `COc1ccc2[nH]c(C)c(C(=O)CN3CCN(C/C=C/c4ccccc4)CC3)c2c1` belongs 0.0969; to `C=CCOC(=O)C1=C(C)NC(SCC(=O)N(CC)CC)=C(C#N)C1c1ccco1` (centres undefined), -0.388.
`COc1ccc2c(c1)C(=NN)c1cc(OC)ccc1-2` yielded a z-score of -0.189.
`O=C(c1ccccc1)c1c(O)nc(-c2ccccc2)n(-c2ccccc2)c1=O` registered a z-score of -0.427.
The molecule `Nc1ncnc2oc(-c3ccco3)c(-c3ccco3)c12` yielded a z-score of -0.454.
Regarding `N#Cc1ncc(C(F)(F)F)cc1Sc1ccccc1N`, the z-score was -0.463.
`O=c1c2cn[nH]c2[nH]c(=S)n1-c1ccccc1` came in with a z-score of -0.468.
In turn, `c1ccc2nc(N3CCOCC3)cnc2c1` yielded a z-score of 0.591.
The molecule `Cc1[nH]c2ccccc2c1C(=O)COC(=O)c1c(-c2c(F)cccc2Cl)noc1C` displayed a z-score of -0.0597.
Consider `COc1ccc(/C=C\C(=O)CC(O)(c2ccccc2)C(F)(F)F)cc1` (centres undefined), for which the z-score is -0.0737.
Regarding `COc1cc2[nH]c(=S)nc(NCC3CCCO3)c2cc1OC` (centres undefined), the z-score is 0.919.
The value for `Cc1ccc(C)c(N2CCN(C(=O)CCCN3C(=S)NC(C)(C)CC3C)CC2)c1` (centres undefined) was 0.0362; that for `O=C(Nc1cccnc1)c1ccc(Oc2ccccc2)cc1` was -0.351.
Take `CC(=O)Nc1ccc(NC(=O)c2cc(C)nn2-c2ccccc2)cc1`: the z-score stood at 0.209.
The value for `CCN(CC)C(=O)c1cccc2c1C(=O)c1ccccc1-2` was -0.0156; that for `Cc1ccc(CSc2nnc(-c3cccc(S(=O)(=O)N4CCOCC4)c3)n2CC(C)C)cc1` was -0.0691.
